The target in the assay is T1, Munc18c, N-terminal His6-fusion protein (Mus musculus (Mouse), UniProt Q60770).
T1 chain: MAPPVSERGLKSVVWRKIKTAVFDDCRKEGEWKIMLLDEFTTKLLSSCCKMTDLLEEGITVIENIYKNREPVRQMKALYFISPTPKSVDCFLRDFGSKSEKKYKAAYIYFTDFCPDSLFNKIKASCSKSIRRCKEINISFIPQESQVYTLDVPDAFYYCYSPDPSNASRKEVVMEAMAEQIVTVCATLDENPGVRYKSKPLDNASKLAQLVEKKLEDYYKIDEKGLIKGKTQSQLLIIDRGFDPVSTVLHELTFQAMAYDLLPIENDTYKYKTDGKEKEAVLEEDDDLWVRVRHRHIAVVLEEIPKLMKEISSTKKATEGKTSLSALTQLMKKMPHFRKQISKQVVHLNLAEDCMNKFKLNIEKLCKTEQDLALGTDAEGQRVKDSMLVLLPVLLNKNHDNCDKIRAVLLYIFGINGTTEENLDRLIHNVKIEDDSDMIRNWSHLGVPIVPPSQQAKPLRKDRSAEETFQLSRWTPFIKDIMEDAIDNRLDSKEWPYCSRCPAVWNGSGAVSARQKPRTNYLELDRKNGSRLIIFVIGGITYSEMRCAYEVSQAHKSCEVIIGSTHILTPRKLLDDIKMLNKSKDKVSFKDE
Put plainly: Ni-NTA pull-down, immunoblot; without syntaxin 4; excess Sx4 cytosolic domain (16.7 uM) displaces VAMP2 from Munc18c, Sx16 does not. (A western blot detects proteins with antibodies after separation by electrophoresis.)

From article PMC2605266 (2008) come the findings set out here.

B1: VAMP2 cytosolic domain ([…]), untagged (protein)
chain: not shown
In the case of B1, the binding result is “binds”.
